Laboratory results: PubChem BioAssay AID602310 (National Center for Advancing Translational Sciences (NCATS), 2012)
Out of some 410,000 compounds screened, about 310 (0.076%) were called active. The shares of active, inactive and inconclusive entries below differ from those in the screen. Calls come from the whole dose curve; as a rule, active = well fitted curve in the direction sought with a large enough effect; inconclusive = small, poorly fitted or top-dose-only effect; inactive = flat fitted curve, though single readings scatter. Potencies beside an inconclusive call are fits to weak or partial responses and may not hold up.

Target: DNA dC->dU-editing enzyme APOBEC-3G (Homo sapiens) (UniProt Q9HC16)
UniProt Q9HC16, sequence (Q9HC16 whole entry, looked up): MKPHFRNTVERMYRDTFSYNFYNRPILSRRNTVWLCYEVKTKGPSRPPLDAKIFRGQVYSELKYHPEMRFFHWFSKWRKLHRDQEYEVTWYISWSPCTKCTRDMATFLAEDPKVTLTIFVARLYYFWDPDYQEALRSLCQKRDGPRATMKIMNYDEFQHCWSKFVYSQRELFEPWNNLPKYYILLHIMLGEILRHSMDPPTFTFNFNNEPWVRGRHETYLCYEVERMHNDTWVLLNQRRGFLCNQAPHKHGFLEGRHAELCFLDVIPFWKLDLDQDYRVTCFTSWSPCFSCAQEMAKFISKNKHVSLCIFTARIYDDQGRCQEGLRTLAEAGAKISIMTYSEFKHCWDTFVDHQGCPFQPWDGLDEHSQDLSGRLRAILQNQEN
Assay: qHTS for Inhibitors of Vif-A3G Interactions: qHTS; note: nearly all actives have a fitted effect of over 60% in size;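 for activity, negative = active: hits raise eYFP signal because A3G escapes Vif-driven loss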
Details: HeLa A3G-eYFP + Vif (tagged APOBEC3G with the HIV-1 protein that degrades it), YFP fluorescence, overnight; series mostly up to 46.1 µM; activity, negative = active: at the top concentration
In short: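 HeLa cells stably expressing Vif and C-terminally eYFP-tagged A3G, seeded overnight at 37 deg C, then exposed to compound by pintool overnight at 37 deg C. Rise in yellow fluorescence (Ex 488/Em 500-530, Acumen) marks blocked Vif-driven A3G degradation.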
% is set by controls: 0 for no effect and ±100 for the full control effect; potency is the fitted concentration of half-maximal effect; tags give direction and shape of the fitted curve.

Compound | activity, negative = active | Potency
Cc1cc(N2CCN(S(=O)(=O)c3ccccc3)CC2)c2ccccc2n1 | inactive: 0.892% | –
O=c1[nH]c2cc3c(cc2cc1CN(Cc1cccnc1)Cc1nnnn1Cc1ccco1)OCCO3 | inactive: -3.22% | –
COc1ccc(/C=C/c2ccncc2)c2ccccc12 | – | inconclusive: 35.5 µM [inhibitor, single point]
Cc1cn2c(=O)cc(COC(=O)c3cccc(NC(=O)COc4ccccc4)c3)nc2s1 | inactive: -2.26% | –
COc1ccccc1CNc1nc(NCc2ccc(C(C)C)cc2)c2sccc2n1 | inactive: -16.5% | –
Cc1[nH]c2ccccc2c1/C=C/c1ccc2ccccc2n1 | – | active: 11.2 µM
COc1cccc(NC(=O)CN(C)C(=O)c2cc(-c3ccco3)nc3ccccc23)c1 | inactive: -4.69% | –
CCOC(=O)c1c(-c2cccc([N+](=O)[O-])c2)csc1NC(=O)CCCOc1ccccc1OC | inactive: 0.552% | –
Cc1c(C(=O)Nc2ccc3oc(-c4cccnc4)nc3c2)oc2ccccc12 | – | inconclusive: 11.2 µM [inhibitor, partial curve, poor fit]
Cc1ccc(-n2ncc(C(=O)N3CCN(C4CCCCC4)CC3)c2C2CCN(C(=O)OC(C)(C)C)CC2)cc1C | inactive: 0.809% | –
CCOC(=O)C(=Cc1ccccc1)C(=O)c1ccccc1 | – | inconclusive: 17.8 µM [inhibitor, single point]
COc1cc(SC)ccc1C(=O)N1CCN(c2ccccc2OC)CC1 | – | inconclusive: 7.08 µM [inhibitor, full curve, poor fit]
CCN1CCN(CCOc2ccccc2OCc2ccccc2)CC1 | inactive: 5.97% | –
Cc1cc2cc(C(c3nnnn3C(C)(C)C)N(Cc3ccco3)CC3CCCO3)c(=O)[nH]c2cc1C (stereo not drawn) | inactive: -0.622% | –
Brc1ccc2c(c1)[C@H]1OCC[C@H]1[C@@H](c1cccs1)N2 | – | inconclusive: 11.2 µM [inhibitor, partial curve, poor fit]
COc1ccc(C(=O)C[n+]2cccc3cc(Cl)ccc32)cc1 | – | inconclusive: 15.8 µM [inhibitor, partial curve, poor fit]
CCOC(=O)c1c(C)c(C(=O)Nc2cc(OC)ccc2OC)c(C)n1CC | – | inconclusive: 7.08 µM [inhibitor, full curve]
O=[N+]([O-])c1ccc(/C=N/Nc2ccc3ccccc3c2)o1 | – | inconclusive: 2.82 µM [inhibitor, full curve, poor fit]
COCc1cc(S(=O)c2ccc(Cl)cc2)nc(C)n1 (stereo not drawn) | – | inconclusive: 25.1 µM [inhibitor, single point]
NC(=O)c1nsc(C(=O)N(c2ccccc2)C(C(=O)NC2CCCC2)c2ccc3ncccc3c2)c1N (stereo not drawn) | – | inconclusive: 35.5 µM [inhibitor, partial curve, poor fit]
CCCCn1c(N)c(N(Cc2ccccc2OC)C(=O)c2ccc([N+](=O)[O-])s2)c(=O)[nH]c1=O | – | inconclusive: 35.5 µM [inhibitor, single point]
NNC(=O)c1cc(-c2ccccc2)sc1N | inactive: 0.994% | –

Compound | activity, negative = active | Potency
Fc1ccc(-c2cc(-c3nc(-c4ccccc4)no3)[nH]n2)cc1 | inactive: 2.57% | –
COc1cc(/C=N/n2c(-c3ccccc3)n[nH]c2=S)cc(OC)c1OC | – | inconclusive: 20 µM [inhibitor, single point]
CCOC1=C2CN(S(=O)(=O)c3ccc(C)cc3)[C@H](c3cccc4ccccc34)C[C@H]2C(C#N)(C#N)C(C#N)(C#N)C1 | – | inconclusive: 22.4 µM [inhibitor, partial curve, poor fit]
Cc1cc(NC(=O)COc2cccc(Oc3ccccc3)c2)no1 | – | inconclusive: 3.16 µM [inhibitor, full curve]
CCOC(=O)c1[nH]c(C)c(/C(O)=C2\C(=O)C(=O)N(CCN(C)C)C2c2ccc(C)o2)c1C (stereo not drawn) | – | inconclusive: 35.5 µM [inhibitor, single point]
Cc1cc(C(=O)N/N=C/c2cccnc2)c2ccccc2n1 | – | inconclusive: 25.1 µM [inhibitor, partial curve, poor fit]
Cc1cccc(N=C2NC(=O)/C(=C/c3cccn3C)S2)c1 | – | inconclusive: 8.91 µM [inhibitor, partial curve, poor fit]
COC(=O)c1ccc(NS(=O)(=O)c2cc(-c3cc(C)no3)ccc2OC)cc1 | – | inconclusive: 2.82 µM [inhibitor, partial curve, poor fit]
CN(C)c1ccc(/C=C/c2ccnc3ccccc23)cc1C=O | – | active: 7.08 µM
COC(=O)CSC1=C(C#N)C(c2ccc(C)o2)CC(=O)N1 (stereo not drawn) | – | inconclusive: 7.08 µM [inhibitor, full curve, poor fit]
Cc1c(C(=O)N/N=C/C(C)C)[nH]c2c([N+](=O)[O-])cccc12 | – | inconclusive: 3.55 µM [inhibitor, full curve, poor fit]
CCN(CC)CCOC(=O)c1ccc(NC(=O)c2nn(-c3ccc(C)cc3)c(=O)c3c2c2ccccc2n3C)cc1 | – | inconclusive: 35.5 µM [inhibitor, single point]
COc1ccccc1-c1c(C)nn2c(N3CCN(c4ccc(Cl)cc4)CC3)cc(C)nc12 | inactive: 1.35% | –
Cc1n[nH]c(C)c1N1C(=O)c2cccc3c(N4CCCCCC4)ccc(c23)C1=O | – | inconclusive: 3.16 µM [inhibitor, partial curve, poor fit]
Cc1cccc(Oc2nc3c(C)cccn3c(=O)c2/C=C(\C#N)c2nc3ccccc3s2)c1 | inactive: 6.72% | –
COc1ccc(-c2cn[nH]c2-c2ccc(OCc3ccc(F)cc3)cc2O)cc1OC | inactive: -2.11% | –
COc1cc(S(=O)(=O)N2CCN=C2c2ccccc2)ccc1F | – | inconclusive: 17.8 µM [inhibitor, single point]
Cn1c(CNC(=O)c2ccc(Cl)cc2)nnc1SCC(=O)NC1CCCC1 | inactive: 7.12% | –
ClCc1nnc(-c2ccccc2)o1 | – | inconclusive: 28.2 µM [inhibitor, single point]
O=C(CCl)N=c1sccn1Cc1ccc(Cl)cc1Cl | inactive: -27.2% | –
COC(=O)c1c(NC(=O)c2ccc(S(=O)(=O)N3CCCCC3C)cc2)sc2c1CCN(C(C)C)C2 (stereo not drawn) | – | inconclusive: 35.5 µM [inhibitor, single point]
